# Data published in article PMC4336329 (PLoS ONE, 2015).
# The campaign covered roughly 310,000 compounds. About 2,200 (0.71%) showed an effect of 50% or more. Effects have a minus sign here. This is one part of the list.
# Target: human ether-à-go-go-related gene (hERG) potassium channel (human, UniProt Q12809)
# Test: primary screen, population patch clamp on CHO cells stably expressing hERG
# Chain of human ether-à-go-go-related gene (hERG) potassium channel (Q12809 whole entry, looked up): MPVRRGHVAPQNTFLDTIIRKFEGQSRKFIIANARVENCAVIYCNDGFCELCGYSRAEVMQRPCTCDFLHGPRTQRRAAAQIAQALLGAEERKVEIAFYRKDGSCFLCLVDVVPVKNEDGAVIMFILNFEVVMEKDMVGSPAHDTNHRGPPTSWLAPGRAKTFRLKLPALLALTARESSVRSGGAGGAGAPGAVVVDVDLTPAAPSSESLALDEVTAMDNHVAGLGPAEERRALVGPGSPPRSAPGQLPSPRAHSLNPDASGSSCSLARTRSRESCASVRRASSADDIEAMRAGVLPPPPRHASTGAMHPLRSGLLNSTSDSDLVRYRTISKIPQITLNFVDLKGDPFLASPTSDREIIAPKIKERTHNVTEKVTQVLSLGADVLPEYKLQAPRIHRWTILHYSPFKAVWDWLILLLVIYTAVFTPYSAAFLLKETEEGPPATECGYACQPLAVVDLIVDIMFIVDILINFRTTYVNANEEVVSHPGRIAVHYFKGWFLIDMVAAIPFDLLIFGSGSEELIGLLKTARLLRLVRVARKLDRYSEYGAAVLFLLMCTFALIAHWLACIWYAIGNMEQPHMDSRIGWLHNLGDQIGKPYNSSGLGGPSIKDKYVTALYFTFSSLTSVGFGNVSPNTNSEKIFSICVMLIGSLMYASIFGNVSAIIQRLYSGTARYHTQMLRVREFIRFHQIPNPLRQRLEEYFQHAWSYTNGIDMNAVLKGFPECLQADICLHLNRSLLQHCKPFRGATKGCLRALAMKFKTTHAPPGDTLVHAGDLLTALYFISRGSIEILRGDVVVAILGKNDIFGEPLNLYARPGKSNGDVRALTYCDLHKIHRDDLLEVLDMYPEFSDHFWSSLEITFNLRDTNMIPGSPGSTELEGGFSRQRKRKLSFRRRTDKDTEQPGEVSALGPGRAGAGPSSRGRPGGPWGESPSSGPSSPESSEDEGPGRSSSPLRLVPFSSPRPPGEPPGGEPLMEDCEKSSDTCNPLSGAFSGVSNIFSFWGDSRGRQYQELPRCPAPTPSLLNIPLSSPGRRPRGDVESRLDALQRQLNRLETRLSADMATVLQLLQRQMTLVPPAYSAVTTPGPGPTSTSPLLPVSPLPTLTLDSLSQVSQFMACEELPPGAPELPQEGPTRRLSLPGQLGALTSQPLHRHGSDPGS
row,SMILES,"hERG current change (%, negative = inhibition) at 1uM"
1,CCCCC1=NN2CCS(=O)(=O)N=C2S1,7%
2,COCCn1c(SCC(=O)Nc2cc(OC)ccc2OC)nc2c(c1=O)SC(C)C2 (centres unmarked),4.38%
3,CC(C)CC(NC(=O)c1ccccc1)C(=O)N/N=C/c1ccco1 (centres unmarked),11.5%
4,Cc1ccc(C(=O)N2CCN(c3ccccn3)CC2)cc1,-6.06%
5,CCCC(c1nnnn1Cc1ccco1)N1CCN(c2ccccc2)CC1.Cl (centres unmarked),9.08%
6,CCOC(=O)c1c(C)n(C)c2ccc(OCC(O)CN3CCN(C)CC3)cc12.Cl (centres unmarked),2.81%
7,Cc1ccn2cc(-c3cccc(S(=O)(=O)N4CCCCC4)c3)nc2c1,13.9%
8,COc1ccc(C(=O)OCC(O)COC(=O)c2ccc(OC)cc2)cc1,6.51%
9,CCOC(=O)c1nc2cc3n(c(C)c-2c1C)C(C)C(C)=C3C.Cl (centres unmarked),-13.9%
10,CCCn1c(=O)c2ccccc2n2c(SC(C)C(N)=O)nnc12 (centres unmarked),13.8%
11,CC(C)N(C(C)C)S(=O)(=O)c1ccc(N2CCc3ccccc3C2)nc1,12.1%
12,CCSc1nnc(SCC(=O)NC2CCCCC2)s1,11.4%
13,COc1ccc(C(C(=O)NCc2ccccc2)N(Cc2cccnc2)C(=O)c2snc(C(N)=O)c2N)cc1OC (centres unmarked),8.05%
14,Cc1nnc(NC(=O)CSc2ccc(-c3ccco3)nn2)s1,14.9%
15,CCN(CC)C(=O)C(=O)N/N=C/c1ccc(Br)cc1,3.35%
16,CCn1c(CC(=O)Nc2ccc(C)c(Cl)c2)nnc1SCC(=O)Nc1nc(C)cs1,-0.588%
17,O=C1Nc2ccccc2C1=O,3.31%
18,Cc1nc(CS(=O)c2ccc(Cl)cc2)cc(N2CCOCC2)n1 (centres unmarked),11.9%
19,CN(C)c1ccc(C2C3C(=O)NC(=O)C3ON2c2ccc(Cl)cc2)cc1 (centres unmarked),-33.2%

row,SMILES,"hERG current change (%, negative = inhibition) at 1uM"
1,O=C(COC(=O)CSc1ccc2ccccc2c1)NCc1ccc2c(c1)OCO2,14.5%
2,COc1ccccc1C1CC(c2c(-c3ccccc3)c3cc(Cl)ccc3[nH]c2=O)=NN1S(C)(=O)=O (centres unmarked),9.89%
3,N=C1S/C(=C\c2ccccc2F)C(=O)N1c1ccc(F)cc1,6.95%
4,CN(C)C(=O)O/N=C(\N)COc1ccc(C(C)(C)C)cc1,8.49%
5,CCOc1cccc(-c2c(C(=O)N/N=C/c3ccncc3)nnn2-c2nonc2N)c1,12.6%
6,N#Cc1ccccc1OCC(=O)OCC(=O)NC1CCCC1,9.47%
7,O=C(O)c1cccc(N2C(=O)c3cc([N+](=O)[O-])cc4cc([N+](=O)[O-])cc(c34)C2=O)c1,13.2%
8,CC(=O)N1CCN(C2=NC(=O)C(=C3CCCCC3)S2)CC1,-2.21%
9,COc1cc2c(cc1NC(=O)CCCN1C(=O)CCC1=O)oc1ccccc12,13.1%
10,C=CCn1c(SCC(=O)N(C)C2CCS(=O)(=O)C2)nnc1-c1ccncc1 (centres unmarked),6.19%
11,CCn1c(=O)c(C(=O)Nc2ccccc2S(N)(=O)=O)c(O)c2ccccc21,18.7%
12,O=C(Nc1nnc(S(=O)(=O)N2CCOCC2)s1)c1ccccc1F,21.1%
13,O=C(Nc1cccc2c1CCCC2)c1cc([N+](=O)[O-])cc([N+](=O)[O-])c1,10.3%
14,CN1c2ccsc2C(O)=C(C(=S)Nc2ccc(F)c(Cl)c2)S1(=O)=O,9.27%
15,Cc1ccc(NC(=S)N(Cc2cccs2)Cc2cc3cc(C)ccc3[nH]c2=O)cc1,10.4%
16,CCOc1cc(CN2CCCCC2)ccc1OC,-4.33%
17,NC(=O)CSc1nnc(-c2ccc(S(=O)(=O)N3CCCC3)cc2)o1,8.73%
18,CCCCN(C(=O)CN1C(=O)C2CCCCC2C1=O)c1c(N)n(CCCC)c(=O)[nH]c1=O (centres unmarked),2.98%
19,CCN(CC)c1ccc(N=Cc2ccc(N(CC)CC)cc2O)cc1,-5.47%

row,SMILES,"hERG current change (%, negative = inhibition) at 1uM"
1,CCN1CCN(S(=O)(=O)c2cnc(Cl)c(Br)c2)CC1,37.7%
2,O=C(COc1cccc(C(F)(F)F)c1)NCC(c1ccco1)N1CCCCC1 (centres unmarked),-3.7%
3,CC(=O)NCCc1nc2ccccc2n1CCOc1cccc(C)c1,5.57%
4,Nc1c(-c2ccccc2)c(CSc2nc3ccccc3[nH]2)nn1-c1ccc(Cl)cc1,15.9%
5,O=C(O)C1=C[C@H](c2ccc(Br)cc2)C[C@H](OCc2ccc(CO)cc2)O1,12%
6,CCOC(=O)[C@H]1[C@H]2COc3ccc(OC)cc3[C@@H]2N2C(=O)CN(CC3CCCO3)C(=O)[C@@]12C (some centres unmarked),19.7%
7,Cl.Oc1ccc(N2CCN(C(c3cccs3)c3nnnn3CCc3ccccc3)CC2)cc1 (centres unmarked),7.53%
8,FC(F)(F)c1cc(-c2ccccc2)nc(NCC2CCCO2)n1 (centres unmarked),6.04%
9,CN1C(=O)N(S(=O)(=O)c2ccc(F)c(F)c2F)C(=O)C1(C)C,11%
10,O=C(N/N=C(/CC(=O)c1cccs1)C(F)(F)F)c1ccc(O)cc1,12.1%
11,COc1ccc(CC2(C)OC(c3ccc([N+](=O)[O-])cc3)=NN2C(C)=O)cc1 (centres unmarked),-6.66%
12,Cc1ncc(CO)c(/C=N/NC(=O)c2ccc(O)cc2)c1O,-0.97%
13,O=C(c1cccs1)C1CN2CCC1CC2 (centres unmarked),2.16%
14,CCOC(=O)C1=C(O)C(=O)N(Cc2cccnc2)C1c1ccc(C)cc1 (centres unmarked),13.7%
15,O=C(/C=C/c1ccc(OC2CSC2)cc1)c1ccc(Cl)cc1,1.19%
16,COc1ccc(-n2c(SCC(=O)c3ccc[nH]3)nnc2-c2ccccc2)cc1,10.6%
17,O=S(=O)(c1cnc[nH]1)N1CCN(c2ccc(Cl)cc2)CC1,13.7%
18,CN(C(=O)CN1C(=O)/C(=C/c2ccc(Cl)cc2)SC1=S)C1CCS(=O)(=O)C1 (centres unmarked),8.21%
